Data: ChEMBL document CHEMBL4888484, “Replenishing the malaria drug discovery pipeline: Screening and hit evaluation of the MMV Hit Generation Library 1 (HGL1) against asexual blood stage Plasmodium falciparum ,using a nano luciferase reporter read-out” (2022)
The whole screen tested about 150,000 compounds, of which about 540 (0.36%) showed an effect of 50% or more. Some of the results follow.

Each compound was assayed on Plasmodium falciparum (assay: Primary screen in NF54 nanoGlo assay, in single point, at 2uM, 72h; a lower Z score goes with more inhibition). Details: timepoint 72 hour.
Type: functional, Erythrocyte

Structure (SMILES) | % Inhibition | Z score
Cc1cc(C(=O)N2CCCC2)c2c(=O)n(CC(=O)NC3CCCC3)c(=O)n(-c3ccccc3)c2n1 | 1% | -0.14
CS(=O)(=O)NCCOC1CCCCCC1 | -12% | 1.72
CS(=O)(=O)c1ccc(Br)c(S(=O)(=O)N2CCC(n3ccnc3)CC2)c1 | -5% | 0.95
Cc1cc(C(=O)N2CCC=C(c3cnn(C)c3)C2)ns1 | 4% | -0.72
Cc1cccc(CNC(=O)NCCC(=O)N(C)C)c1Br | -8% | 0.85
CCc1nc(-c2ccc(N3CCN(C)CC3)cc2)n([C@H]2CCCC[C@@H]2O)n1 | -5% | 0.87
C[C@H]1CCCN(C(C)(C)CNS(=O)(=O)c2cccc3c2OCCO3)C1 | -7% | 0.76
COc1ccc(-n2nc(C)c3sc(N4CCN(C(=O)c5ccc(F)c(F)c5)CC4)nc32)cc1 | 1% | -0.13
CC(C)c1cccc(S(=O)(=O)N2CCC(c3nncn3C)CC2)c1 | -2% | 0.36
Cc1cnn(CCNC(=O)[C@@H]2C[C@H](C)CC(=O)N2)c1 | -1% | 0.12
Cc1ccc(F)cc1NC(=O)N1CCC12CCC2 | 38% | -5.46
Cc1nn(C)c(C)c1S(=O)(=O)N[C@H]1CCOc2ccc(F)cc21 | -10% | 0.95
COc1ccc(C(=O)Nc2nc(-c3cccs3)c(NC(=O)c3ccc(Cl)cc3)s2)cc1 | -6% | 0.81
O=C(CCN1CCN(c2ccc(O)cc2)CC1)Nc1ccccc1 | -12% | 1.48
Cn1nccc1NC(=O)Cn1cc(-c2ccnc(N)n2)cn1 | -5% | 0.72
C[C@H](Oc1ccc2c(c1)CCC2=O)c1ncc(C(C)(C)C)o1 | 4% | -0.44
CCOC(=O)CN(C(=O)c1cnc(C)nc1C)C(C)(C)C | -6% | 0.74
COCC1(CNC(=O)CN2CCN(C)C2=O)CCCC1 | -10% | 1.1
COCCN(C)c1ccc(NCc2cc(C#N)cs2)nc1 | 15% | -2.43
C[C@H]1C(=O)N(Cc2ccccc2)CCN1Cc1nccs1 | 6% | -1.05
Cc1ccc([C@H]2CN(C(=O)c3cc(C)n[nH]3)C[C@@H]2N(C)C)cc1 | -3% | 0.44
Cc1ncc(NC(=O)NC[C@@H]2Cc3ccccc3CO2)c(C2CC2)n1 | -7% | 1.16
O=C(CC[C@@H]1NC(=O)N(Cc2cccc(F)c2)C1=O)N1CCc2ccccc2C1 | -10% | 1.25
C[C@H]1c2ccsc2CCN1C(=O)c1csc2c1CCCC2 | -3% | 0.3
c1ccc([C@H](CC2CCC2)NC2CCC3(CC2)OCCO3)cc1 | 34% | -3.87
Cc1cc2c(cc1S(=O)(=O)N1CCC[C@H]1C(=O)N(Cc1ccccc1)C(C)C)OCC(=O)N2 | -9% | 1.31
CCc1onc(C)c1NC(=O)c1ccc2[nH]cnc2c1 | 1% | -0.08

Structure (SMILES) | % Inhibition | Z score
Cc1nn(CC(=O)Nc2cccc([C@@H](F)C(F)(F)F)c2)c(=O)n1C | -12% | 1.62
CN(C)c1ncc(-c2nccn2C2CCCC2)cn1 | -14% | 1.64
Cc1ccnc(-n2nccc2NC(=O)N2CCOC3(CCC3)C2)c1 | -11% | 1.57
Cc1nn(C)c2nc(C(=O)NCc3ccc(F)cc3)cc(C3CC3)c12 | 28% | -3.22
CC1(C(=O)NOC2CCCCO2)CC1(Cl)Cl (stereo unspecified) | -24% | 2.87
O=C(NCCCN1CCOCC1)c1cc(NS(=O)(=O)c2ccc(F)cc2)ccn1 | -7% | 1.21
Cc1nc(N)cc(NCCc2noc(C3CCC3)n2)n1 | 0% | -0.02
CCOC(=O)N1CCN(c2nc(-c3cccc(OC)c3)no2)CC1 | -16% | 1.4
C[C@@H]1COCCN1C(=O)Cc1ccc(Cl)cc1 | -7% | 0.91
Cc1ccccc1OCC(=O)Nc1cc(-c2ccccc2F)nn1-c1ccccc1 | 6% | -0.84
NC(=O)C1CCCCN1Cc1cc(Br)cc2c1OC(c1ccccc1)OC2 (stereo unspecified) | -11% | 1.62
COc1ccccc1-c1n[nH]c(CC(C)C)c1NC(=O)C1CCCC1 | 3% | -0.52
COC(=O)c1cc(F)cc(NC(=O)[C@@H]2CCCCO2)c1F | -14% | 2.18
O=C(c1cc2c(s1)CCCCC2)N1CCCn2ncnc21 | -17% | 3.37
C=CCNC(=O)c1c(NC(=O)c2ccccc2C)n(-c2ccccc2OC)c2nc3ccccc3nc12 | 7% | -0.81
O=C(NC1CCCCC1)c1cnn2c(-c3cccc(Cl)c3)ccnc12 | -15% | 1.39
CN(CC(C)(CO)CO)C(=O)c1c(Cl)cccc1Cl | -9% | 0.95
CCCc1cnc(C)nc1N[C@H]1CCC[C@@H](CO)C1 | 1% | -0.1
CN(C)c1cc(NC(=O)[C@H]2CCCOCC2)ccn1 | 1% | -0.2
CN(C)Cc1nnc([C@H]2C[C@@H](NC(=O)c3cncc(F)c3)C2)n1C | -22% | 2.24
CCN(CCC(=O)N1CCN(C)CC1)C(=O)c1cc2n(n1)CCCN(Cc1ccc(F)cc1)C2=O | -1% | 0.06
CC(C)n1cnnc1CN(C)c1cc([C@H]2CCOC2)nc(N2CC(O)C2)n1 | -1% | 0.11
Cc1ccc(N(C)S(=O)(=O)c2c(C)sc(C)c2-c2cc(C(F)(F)F)on2)cc1C | -7% | 1.18
COCc1noc([C@H](C)N2CCOc3cc(OC)ccc3C2)n1 | 11% | -1.32
O=C(CCc1cn[nH]c1)N1CCO[C@@H](CCCc2ccccc2)C1 | -20% | 2.56
CCCn1c(=O)c(C)nc2cc(-c3noc(-c4ccc(C)c(NC(=O)c5ccco5)c4)n3)ccc21 | 5% | -0.53
